Experimental findings from PMC4336329 (PLoS ONE, 2015) are described below.

The whole screen tested about 310,000 compounds, of which about 2,200 (0.71%) showed an effect of 50% or more. Effects have a minus sign here. This is one part of the list.

In this test the target is human ether-à-go-go-related gene (hERG) potassium channel (human, UniProt Q12809). As to the kind of experiment: primary screen, population patch clamp on CHO cells stably expressing hERG.
Sequence of human ether-à-go-go-related gene (hERG) potassium channel (Q12809 whole entry, looked up): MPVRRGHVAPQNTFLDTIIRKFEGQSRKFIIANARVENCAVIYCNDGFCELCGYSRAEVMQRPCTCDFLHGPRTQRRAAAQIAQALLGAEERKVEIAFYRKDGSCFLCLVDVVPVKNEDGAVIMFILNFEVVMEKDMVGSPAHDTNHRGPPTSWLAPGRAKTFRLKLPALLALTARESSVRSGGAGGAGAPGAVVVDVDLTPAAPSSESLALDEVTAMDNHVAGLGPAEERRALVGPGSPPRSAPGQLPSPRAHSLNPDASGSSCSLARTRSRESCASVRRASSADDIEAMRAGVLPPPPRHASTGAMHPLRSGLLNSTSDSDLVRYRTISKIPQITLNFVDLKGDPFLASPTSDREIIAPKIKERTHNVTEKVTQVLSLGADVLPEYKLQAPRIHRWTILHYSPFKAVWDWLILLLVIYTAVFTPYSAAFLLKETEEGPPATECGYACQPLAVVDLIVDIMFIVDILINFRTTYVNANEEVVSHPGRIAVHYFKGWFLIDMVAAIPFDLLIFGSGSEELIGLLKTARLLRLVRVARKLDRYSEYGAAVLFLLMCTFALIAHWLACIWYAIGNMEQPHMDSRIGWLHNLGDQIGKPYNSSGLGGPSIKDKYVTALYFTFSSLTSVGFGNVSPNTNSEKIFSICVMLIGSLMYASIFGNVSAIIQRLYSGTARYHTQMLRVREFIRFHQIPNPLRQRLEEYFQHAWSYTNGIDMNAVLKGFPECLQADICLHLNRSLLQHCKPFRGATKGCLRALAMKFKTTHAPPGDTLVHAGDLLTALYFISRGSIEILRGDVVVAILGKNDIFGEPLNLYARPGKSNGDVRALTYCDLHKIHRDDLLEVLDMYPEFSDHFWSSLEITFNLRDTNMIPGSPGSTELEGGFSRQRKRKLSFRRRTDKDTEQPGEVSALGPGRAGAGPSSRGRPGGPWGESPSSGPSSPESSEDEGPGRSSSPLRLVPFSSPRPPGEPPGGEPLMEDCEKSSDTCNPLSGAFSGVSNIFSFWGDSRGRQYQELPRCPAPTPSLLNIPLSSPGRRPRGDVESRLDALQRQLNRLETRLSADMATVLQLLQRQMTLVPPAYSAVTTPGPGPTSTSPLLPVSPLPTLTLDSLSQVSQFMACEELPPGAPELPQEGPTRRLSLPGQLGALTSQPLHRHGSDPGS
Regarding `COc1ccc(S(=O)(=O)N2CCOC23CCN(S(=O)(=O)c2cc(C)ccc2C)CC3)cc1`, the “hERG current change (%, negative = inhibition) at 1uM” value is 4.96%.
The figure for `CCn1cc(C(=O)NCC2CCCO2)c(=O)c2cc(S(=O)(=O)N(C)C3CCCCC3)ccc21` (stereo not drawn) is -6.71%; for `CN(CC(=O)N1CCc2ccccc21)S(=O)(=O)c1cccc2cccnc12` it is 0.0796%; for `COc1ccc(C2C(C#N)=C(N)Oc3c2oc(CO)cc3=O)cc1` (stereo not drawn) it is 3.37%.
The figure for `C=CCn1c(P(C)(=O)[O-])nc2ccccc21.[K+]` is 13.7%; for `CC1(C)CSC(=NCc2ccccc2)N1` it is 15%.
To `COc1ccccc1-c1nc(SCc2ccccn2)n[nH]1` belongs -0.379%; to `CC[C@H](C)[C@H](NC(N)=O)C(=O)Nc1ccc(NC(C)=O)cc1`, 12.1%.
With `O=C(O)CCn1c(=O)sc2ccccc21`, the “hERG current change (%, negative = inhibition) at 1uM” value is on record as 7.42%.
The figure for `COc1ccc(/C=N/Nc2nnc(C)n2N)cc1OC(C)=O.Cl` is 11.9%.
The figure for `COc1ccccc1N1CCN(c2ccc([N+](=O)[O-])cc2Cl)CC1` is 12.1%; for `Cc1onc(-c2ccccc2)c1C(=O)Nc1ccon1` it is 4.32%.
The figure for `CCCCCSc1nnc(-c2ccccc2NC(C)=O)c(=O)[nH]1` is 16.2%; for `Cc1ccc(OCC(=O)N(Cc2ccccc2)C(C)C)c([N+](=O)[O-])n1` it is -0.696%.
In the case of `COc1cccc(OC)c1C(=O)Nc1ccncc1`, the “hERG current change (%, negative = inhibition) at 1uM” value amounted to 17.4%.
To `Cc1ccc(C)c(COc2coc(CN3CCN(C(=O)c4ccco4)CC3)cc2=O)c1` belongs -95.9%; to `COc1cc(C(=O)OCCN2CCOCC2)cc(OC)c1OC`, 3.45%.
The figure for `CC1CC2=C(C(=O)O1)C(c1ccc(Cl)cc1)Nc1ccccc1N2` (stereo not drawn) is 1.41%; for `COc1ccc(S(=O)(=O)NC(CC(=O)NCCc2ccc(OC)c(OC)c2)C(C)C)cc1` (stereo not drawn) it is 9.55%.
To `CCCCCCNc1nc(Cl)nc(NC(C)(C)CO)n1` belongs 16.6%; to `CNc1ccccc(-c2ccc3cc4c(cc3n2)OCO4)c1=O`, 4.15%; to `Cn1cc(C[C@H](NC(=O)OC(C)(C)C)C(=O)N[C@H](CO)Cc2ccccc2)c2ccccc21`, 18.7%.
On to `COc1ccc(C(=O)COc2ncnc3cc(Cl)ccc23)cc1`, for which the “hERG current change (%, negative = inhibition) at 1uM” value was found to be 10.2%.
To `O=C(Nc1cccc(Cl)c1)c1ccncc1` belongs 12.8%; to `CON/C=C(\C=Nc1ccc(C(F)(F)F)cc1)c1ncc(C(F)(F)F)cc1Cl`, 3.48%.
`CN(C(=O)COC(=O)CSCc1cccc(Cl)c1)c1c(N)n(Cc2ccccc2)c(=O)[nH]c1=O`: the “hERG current change (%, negative = inhibition) at 1uM” value is 3.78%.
To `O=C(NNC(=O)C1CC1c1ccccc1)c1ccccc1[N+](=O)[O-]` (stereo not drawn) belongs -1.92%; to `COc1ccc(NC(=O)c2ccc3c(c2)CCN3S(=O)(=O)c2ccccc2)cc1`, 10.5%.
The figure for `O=C(CCn1c(=O)c2ccccc2n(Cc2ccccc2)c1=O)NC1CCN(Cc2ccccc2)CC1` is -3.57%.
To `Cc1noc(/C=C/N(C)C)c1S(=O)(=O)N1CCCC(C(=O)NCc2ccc(F)cc2)C1` (stereo not drawn) belongs 3.95%; to `Cc1ccc(C(=O)Nc2c(C)cc(-c3ccccc3)oc2=O)cc1`, 10.9%; to `Cc1ccc2c(c1)CCCN2C(=O)NC1CCCCC1`, 11.5%.
`O=C(O)CC1S/C(=N\N=C2CCCCCCC2)N(c2ccccc2)C1=O` (stereo not drawn): the “hERG current change (%, negative = inhibition) at 1uM” value stood at 17.1%.
To `COc1cc(-c2csc(N3CCOCC3)n2)cc(OC)c1OC` belongs 6.29%.
As to `CCOCCCNC(=O)CN1C(=O)C(CC)Oc2ccccc21` (stereo not drawn), the “hERG current change (%, negative = inhibition) at 1uM” value was determined as 12.2%.
The figure for `CC(NCC(=O)Nc1cc(Cl)cc(Cl)c1)c1ccccc1.O=C(O)C(=O)O` (stereo not drawn) is 18%; for `COc1cccc(NC(=O)c2cc(-c3ccccn3)nc3ccccc23)c1` it is 8.93%.
For `CCOc1[nH]n(-c2ccc(Cl)cc2)c(=O)c1C=Nc1ccc(O)cc1`, the “hERG current change (%, negative = inhibition) at 1uM” value is recorded as 11.2%.
To `COc1ccc(C(=O)COC(=O)CN2C(=O)NC(C)(C)C2=O)cc1OC` belongs 2.8%; to `c1csc(-c2nnc(Cc3cccc4ccccc34)o2)c1`, 15.6%; to `Nc1ccn([C@@H]2CS[C@H](CO)O2)c(=O)n1`, 11.2%.
The figure for `c1ccc(-c2noc(-c3ccncc3)n2)nc1` is 11%; for `Nc1ccc(CCc2nc3ccccc3o2)cc1` it is 7.85%.
As to `Cc1ccc(C2=CCNCC2)cc1.Cl`, the “hERG current change (%, negative = inhibition) at 1uM” value is on record as 14.5%.
The figure for `Cn1nc(C(=O)NCCOc2ccccc2)c2ccccc2c1=O` is -0.5%; for `COc1ccc(C2C(C(C)=O)=C(O)C(=O)N2c2ccc(C)cc2)cc1` (stereo not drawn) it is 10.8%.
To `CCOC(=O)CCc1c(C)c2ccc(OCc3ccc([N+](=O)[O-])cc3)cc2oc1=O` belongs 2.15%; to `O/N=C(/c1ccc(Cl)cc1)C1CC1c1ccccc1` (stereo not drawn), 12.9%.
To `O=C(CN1CCN(c2ccccc2)CC1)NC(=O)NCc1ccccc1` belongs 21.5%.
For `CC(C)(Cl)[N+](=O)[O-]`, the “hERG current change (%, negative = inhibition) at 1uM” value is 13%.
The figure for `O=S(=O)(N1CCOCC1)N1CCN(c2ccccc2F)CC1` is 14.4%; for `CCOc1cc(NC(=S)NCCCN2CCOCC2)c(OCC)cc1NC(=O)c1cccc(C)c1` it is 7.77%.
Consider `COc1ccc(C2N(c3cc(Cl)ccc3OC)C(=O)C3CCCN32)cc1OC` (stereo not drawn), for which the “hERG current change (%, negative = inhibition) at 1uM” value is -1.27%.
To `Cc1cc(C(=O)N/N=C/c2c[nH]c3ccccc23)c(C)o1` belongs -12.5%.
In the case of `COc1ccccc1NS(=O)(=O)c1cccc(C(=O)N/N=C/c2ccc(NC(C)=O)cc2)c1`, the “hERG current change (%, negative = inhibition) at 1uM” value was 18%.
The figure for `COc1ccccc1N(CC(=O)N1CCc2ccccc2C1)S(C)(=O)=O` is 18.7%.
To `Cc1ccc(-c2[nH]ncc2C(=O)c2ccccc2C)c(O)c1` belongs 8.59%; to `Cc1cc(=O)oc2cc(OCC(=O)OCC(=O)Nc3ccccc3Br)ccc12`, 9.45%.
To `CCc1cccc(CC)c1NC(=O)CSc1nc2ccc(N3C(=O)C4C5C=CC(C5)C4C3=O)cc2s1` (stereo not drawn) belongs -3.72%; to `CN(C)C(=S)Nn1c(-c2ccccc2)nc2ccccc2c1=O`, 10.8%; to `Cc1cnc(C(=O)OCC(=O)Nc2ccc(Br)c(C)c2)cn1`, 10.4%.
In the case of `Cc1cc(C)cc(NC(=O)CCNS(=O)(=O)c2ccc3c(c2)oc(=O)n3C)c1`, the “hERG current change (%, negative = inhibition) at 1uM” value is 9.33%.
In the case of `Cc1ccc(C2CC(c3cccs3)n3nc(N)nc3N2)cc1` (stereo not drawn), the “hERG current change (%, negative = inhibition) at 1uM” value is -0.924%.
In the case of `Cc1cc(S(=O)(=O)Nc2ccccc2C)ccc1F`, the “hERG current change (%, negative = inhibition) at 1uM” value was found to be 1.74%.
To `CCOc1ccc(C/C(O)=C2\C(=O)CC(C)(C)CC2=NCC(=O)O)cc1OCC` belongs 13.6%; to `O=C(Nc1cccc(F)c1)Nc1ccc2c(c1)C(=O)OC2`, 11.3%; to `O=C(C1CCC(=O)N(C2CC2)C1)N(CCO)Cc1ccccc1` (stereo not drawn), 13.2%.
The figure for `Cc1cccc(OCCSc2nncn2C)c1` is 13.7%.
The figure for `CN(Cc1nc(-c2ccc3c(c2)OCO3)no1)CC1(N2CCOCC2)CCCCC1` is 11.7%; for `C[N+]1=C(/C=C/Nc2ccccc2)C(C)(C)c2ccccc21.[O-][Cl+3]([O-])([O-])[O-]` it is -62.8%; for `Cc1cc(O)c(NC(=S)NC(=O)c2ccc(-c3ccc(Cl)cc3)o2)cc1C` it is 3.29%.
As to `CCc1ccc(NC(=O)CSc2nc3ccccc3c(=O)n2CCCC(=O)N2CCCC2)cc1`, the “hERG current change (%, negative = inhibition) at 1uM” value is recorded as -16.9%.
To `CC(=O)N1CCC(C(=O)Nc2ccc3c(c2)CCC3)CC1` belongs -2.44%; to `Cc1cccc(C)c1NS(=O)(=O)c1ccc2c(c1)C(=O)c1ccccc1C2=O`, -13.2%.
The figure for `Cc1ccc(CNC(=O)CS(=O)CC(=O)O)cc1` (stereo not drawn) is 15.2%; for `CNS(=O)(=O)c1cc(N)ccc1C` it is 2.22%; for `CC(C)CCNC(=O)c1c(CSc2ccc(Cl)cc2)noc1C(=O)NCc1ccccc1` it is 13.1%.
To `CN(Cc1ccc(F)cc1)Cc1nc(-c2ccccc2)no1` belongs 6.57%; to `Cc1cc(C)c(OCC(O)CNC(C)(C)C)c(C)c1.Cl` (stereo not drawn), 9.45%.
As for `CCN1C(=O)c2cccc3c(S(=O)(=O)NCc4cccnc4)ccc1c23`, the “hERG current change (%, negative = inhibition) at 1uM” value came out at 5.94%.
To `O=C(CN1CCC(O)(c2ccccc2)CC1)Nc1ccc2c(c1)OCCO2` belongs 24.8%; to `CCC(C)(C)n1nnnc1C(C(C)C)N(CCN1CCOCC1)Cc1cc2cccc(C)c2[nH]c1=O` (stereo not drawn), 10.8%; to `O=C(CCn1c(=S)oc2ccccc21)Nc1ccc(F)cc1`, 6.71%.
To `Cc1ccc(NC(=O)COC(=O)C(NS(=O)(=O)c2ccc(Cl)cc2)C(C)O)cc1C` (stereo not drawn) belongs 11.9%; to `COc1ccc(/C=C/C(=O)NCc2ccccn2)cc1OC`, 13.7%; to `Cc1cc(C(=O)NCCCN2CCN(C3CCCCC3)CC2)n(-c2ccccc2)n1`, 15.4%.
The figure for `O=C(CCNS(=O)(=O)c1ccc2c(c1)CCC(=O)N2)NCc1ccc2c(c1)OCO2` is 4.61%; for `CC(C)C(C)NC(=O)COn1nnc2ccc(S(=O)(=O)N3CCOCC3)cc21` (stereo not drawn) it is 20.7%.
Regarding `c1ccc(-c2csc(Cc3nnc4n3CCCCC4)n2)cc1`, the “hERG current change (%, negative = inhibition) at 1uM” value was -1.14%.
For the molecule `CCN(CC(=O)Nc1ccc2c(c1)OCCO2)C(=O)c1ccc(S(=O)(=O)N(C)C)cc1`, the “hERG current change (%, negative = inhibition) at 1uM” value is given as 15.3%.
